Here are results for six molecules from paper PMC10641178.

Sequences of proteins named here, by UniProt entry; tags and fusion partners are left off.
UniProt P20339: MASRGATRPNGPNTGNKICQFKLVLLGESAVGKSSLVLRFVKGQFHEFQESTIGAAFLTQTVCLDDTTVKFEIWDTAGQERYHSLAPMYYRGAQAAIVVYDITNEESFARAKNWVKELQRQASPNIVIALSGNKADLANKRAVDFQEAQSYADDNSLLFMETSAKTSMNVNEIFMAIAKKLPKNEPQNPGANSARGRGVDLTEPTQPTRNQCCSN

Assay [1] deals with T1, hematopoietic PBX–interacting protein (HPIP), endogenous (human (endogenous in MDA-MB231)) (UniProt Q96AQ6).
T1 sequence: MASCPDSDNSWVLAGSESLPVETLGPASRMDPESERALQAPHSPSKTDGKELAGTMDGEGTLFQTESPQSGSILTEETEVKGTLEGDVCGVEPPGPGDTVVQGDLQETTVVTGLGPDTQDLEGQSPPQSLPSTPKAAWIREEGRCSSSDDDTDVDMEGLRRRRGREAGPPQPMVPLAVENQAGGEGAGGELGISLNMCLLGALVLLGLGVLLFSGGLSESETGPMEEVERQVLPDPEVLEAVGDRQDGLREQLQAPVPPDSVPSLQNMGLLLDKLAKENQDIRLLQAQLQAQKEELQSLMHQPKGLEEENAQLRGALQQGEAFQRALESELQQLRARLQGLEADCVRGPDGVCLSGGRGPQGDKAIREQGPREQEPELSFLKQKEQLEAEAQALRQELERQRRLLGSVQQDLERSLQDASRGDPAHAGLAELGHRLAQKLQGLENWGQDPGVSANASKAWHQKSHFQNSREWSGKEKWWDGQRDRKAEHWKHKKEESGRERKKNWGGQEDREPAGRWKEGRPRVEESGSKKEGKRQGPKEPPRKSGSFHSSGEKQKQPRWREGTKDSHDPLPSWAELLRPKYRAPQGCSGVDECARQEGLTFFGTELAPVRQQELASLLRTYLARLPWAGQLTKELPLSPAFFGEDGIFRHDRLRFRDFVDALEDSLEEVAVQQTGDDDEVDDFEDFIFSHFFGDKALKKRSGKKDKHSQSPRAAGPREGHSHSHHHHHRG
Description: co-IP; endogenous proteins in MDA-MB231 cells; NP-40 lysis buffer (20 mM Tris pH 8, 137 mM NaCl, 10% glycerol, 1% NP 40, 2 mM EDTA); immunoprecipitation overnight at 4 °C, agarose A/G beads, Western blot.

The target in assay [2] is T2, GST-CC2 (coiled-coil domain 2 of HPIP) (UniProt Q96AQ6).
T2 sequence: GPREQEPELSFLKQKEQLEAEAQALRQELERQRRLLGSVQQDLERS
Description: pull-down; GST-CC1 or GST-CC2 beads with purified His-Rab5 or His-RUFY3, 1:2 M ratio, room temperature 30 min, 150 mM NaCl, 50 mM Tris pH 8; Western blot; both purified.

For assay [3], the target named is T3, GST-CC1 (coiled-coil domain 1 of HPIP) (UniProt Q96AQ6).
T3 sequence: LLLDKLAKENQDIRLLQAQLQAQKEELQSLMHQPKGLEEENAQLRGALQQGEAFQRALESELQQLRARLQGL
The assay is described as above.

In a further assay the target is His-Rab5 (full length) (UniProt P20339). Briefly: pull-down; His-Rab5 or His-RUFY3 beads with 10 μl in vitro translated 35S-labelled HPIP or its CC deletion mutants; binding buffer 25 mM Tris–HCl pH 8, 50 mM NaCl, 10% glycerol, 0.1% NP 40; five washes; SDS-PAGE and autoradiography; only the target purified.
The target in assay [4] is T4, His-RUFY3 (full length) (UniProt Q7L099).
T4 sequence: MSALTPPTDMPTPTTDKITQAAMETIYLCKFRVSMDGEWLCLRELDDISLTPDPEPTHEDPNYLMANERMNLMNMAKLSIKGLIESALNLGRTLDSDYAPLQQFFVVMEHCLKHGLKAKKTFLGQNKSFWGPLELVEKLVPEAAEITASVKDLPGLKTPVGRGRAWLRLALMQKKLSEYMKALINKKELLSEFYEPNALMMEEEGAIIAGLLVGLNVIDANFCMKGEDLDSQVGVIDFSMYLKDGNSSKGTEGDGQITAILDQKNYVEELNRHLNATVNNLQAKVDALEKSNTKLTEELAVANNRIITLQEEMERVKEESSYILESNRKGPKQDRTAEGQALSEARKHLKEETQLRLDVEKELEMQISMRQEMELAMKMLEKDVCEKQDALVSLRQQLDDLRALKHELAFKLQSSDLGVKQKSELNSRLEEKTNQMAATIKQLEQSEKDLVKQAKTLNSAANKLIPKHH
The assay is described as above.

Assay [5] concerns the target T5, His-tagged RUN domain of RUFY3 (UniProt Q7L099).
T5 sequence: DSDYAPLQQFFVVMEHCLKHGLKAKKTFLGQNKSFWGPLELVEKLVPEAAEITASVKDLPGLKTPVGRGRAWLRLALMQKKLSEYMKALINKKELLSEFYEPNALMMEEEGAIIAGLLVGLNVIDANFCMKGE
Description: pull-down; in vitro pull-down of HPIP with His-tagged wt RUFY3 and RUFY3 domains (CC, RUN, FYVE); conditions not given.

Assay [6] addresses T4, His-RUFY3 (full length). Described as above.

Results are given in words; binding and its absence hold for the method and conditions named. For some of these results: Binding seen in cells or lysates may run through a third protein. Some binding calls cover weakened binding; strength is not graded here. For some of these results: Where a sequence is shown, tags or fusion partners need not be part of it.

For “Rab5, endogenous (from UniProt P20339 1-215)”, the binding entry in assay [1] is on record as “binds”.

As to “His-Rab5 (full length) (from UniProt P20339 1-215)”, the binding entry in assay [2] was “no binding”; in assay [3], “binds”.

B1: RUN FYVE domain–containing protein 3 (RUFY3), endogenous (protein, UniProt Q7L099 1-469)
chain: T4 sequence
As for B1, the binding result in assay [1] is given as “binds”.

B2: His-RUFY3 (full length) (protein, UniProt Q7L099 1-469)
chain: T4 sequence
As to B2, the binding result in assay [2] and in assay [3] was “binds” in each case.

B3: wtHPIP, in vitro translated, S35-Met labelled (protein, UniProt Q96AQ6 1-731)
chain: T1 sequence
modifications: 35S-methionine labelled
On to B3, for which the binding entry in the assay with His-Rab5 (full length) and in the assay with His-RUFY3 (full length) [4] was “binds” in each case.

B4: HPIP used in the in vitro pull-down with RUFY3 domains (Figure 4I) (protein, UniProt Q96AQ6 1-731)
chain: T1 sequence
As to B4, the binding result is given as “no binding” in assay [5] and “binds” in the assay with His-RUFY3 (full length) [6].
